The values that follow come from PMC6465297.

By UniProt entry, the sequences of proteins in these tests, tags left out.
UniProt Q9BVV6: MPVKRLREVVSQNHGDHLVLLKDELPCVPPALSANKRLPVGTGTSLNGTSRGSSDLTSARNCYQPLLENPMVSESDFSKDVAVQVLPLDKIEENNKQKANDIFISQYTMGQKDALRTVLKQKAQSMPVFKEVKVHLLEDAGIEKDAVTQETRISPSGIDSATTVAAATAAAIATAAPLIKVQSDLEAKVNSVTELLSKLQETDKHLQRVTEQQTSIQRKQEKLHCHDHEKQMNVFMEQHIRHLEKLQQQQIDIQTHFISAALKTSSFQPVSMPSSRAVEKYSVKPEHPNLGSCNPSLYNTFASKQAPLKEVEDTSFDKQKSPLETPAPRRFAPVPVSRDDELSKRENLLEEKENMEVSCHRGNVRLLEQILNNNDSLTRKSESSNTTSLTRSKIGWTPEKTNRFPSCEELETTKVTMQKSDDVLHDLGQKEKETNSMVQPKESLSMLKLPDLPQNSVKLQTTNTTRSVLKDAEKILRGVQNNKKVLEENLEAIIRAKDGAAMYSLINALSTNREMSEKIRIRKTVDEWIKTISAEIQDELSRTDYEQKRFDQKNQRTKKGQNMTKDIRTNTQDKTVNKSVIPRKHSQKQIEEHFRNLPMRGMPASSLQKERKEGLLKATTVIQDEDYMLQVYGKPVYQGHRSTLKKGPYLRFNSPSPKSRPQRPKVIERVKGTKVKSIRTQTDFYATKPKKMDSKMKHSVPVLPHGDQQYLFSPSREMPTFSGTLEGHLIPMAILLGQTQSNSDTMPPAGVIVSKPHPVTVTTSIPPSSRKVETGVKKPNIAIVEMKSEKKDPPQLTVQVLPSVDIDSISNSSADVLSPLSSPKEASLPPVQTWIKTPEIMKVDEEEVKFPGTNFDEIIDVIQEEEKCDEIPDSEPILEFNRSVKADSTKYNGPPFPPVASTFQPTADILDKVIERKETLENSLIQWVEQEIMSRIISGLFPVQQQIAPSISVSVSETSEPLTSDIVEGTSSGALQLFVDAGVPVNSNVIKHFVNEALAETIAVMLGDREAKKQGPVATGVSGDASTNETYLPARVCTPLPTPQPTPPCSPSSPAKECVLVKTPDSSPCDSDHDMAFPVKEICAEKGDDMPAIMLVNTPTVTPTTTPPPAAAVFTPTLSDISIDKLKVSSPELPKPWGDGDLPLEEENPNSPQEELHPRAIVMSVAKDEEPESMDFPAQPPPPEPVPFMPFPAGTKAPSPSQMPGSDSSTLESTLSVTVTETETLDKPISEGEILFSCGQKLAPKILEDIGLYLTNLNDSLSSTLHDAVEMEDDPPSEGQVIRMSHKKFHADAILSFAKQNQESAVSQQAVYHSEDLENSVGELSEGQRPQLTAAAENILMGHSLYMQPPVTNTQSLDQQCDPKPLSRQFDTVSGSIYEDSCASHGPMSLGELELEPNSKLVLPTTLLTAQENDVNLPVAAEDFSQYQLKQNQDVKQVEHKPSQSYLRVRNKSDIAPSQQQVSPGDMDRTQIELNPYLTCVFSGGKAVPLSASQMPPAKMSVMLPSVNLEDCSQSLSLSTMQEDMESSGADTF
UniProt Q4AC94: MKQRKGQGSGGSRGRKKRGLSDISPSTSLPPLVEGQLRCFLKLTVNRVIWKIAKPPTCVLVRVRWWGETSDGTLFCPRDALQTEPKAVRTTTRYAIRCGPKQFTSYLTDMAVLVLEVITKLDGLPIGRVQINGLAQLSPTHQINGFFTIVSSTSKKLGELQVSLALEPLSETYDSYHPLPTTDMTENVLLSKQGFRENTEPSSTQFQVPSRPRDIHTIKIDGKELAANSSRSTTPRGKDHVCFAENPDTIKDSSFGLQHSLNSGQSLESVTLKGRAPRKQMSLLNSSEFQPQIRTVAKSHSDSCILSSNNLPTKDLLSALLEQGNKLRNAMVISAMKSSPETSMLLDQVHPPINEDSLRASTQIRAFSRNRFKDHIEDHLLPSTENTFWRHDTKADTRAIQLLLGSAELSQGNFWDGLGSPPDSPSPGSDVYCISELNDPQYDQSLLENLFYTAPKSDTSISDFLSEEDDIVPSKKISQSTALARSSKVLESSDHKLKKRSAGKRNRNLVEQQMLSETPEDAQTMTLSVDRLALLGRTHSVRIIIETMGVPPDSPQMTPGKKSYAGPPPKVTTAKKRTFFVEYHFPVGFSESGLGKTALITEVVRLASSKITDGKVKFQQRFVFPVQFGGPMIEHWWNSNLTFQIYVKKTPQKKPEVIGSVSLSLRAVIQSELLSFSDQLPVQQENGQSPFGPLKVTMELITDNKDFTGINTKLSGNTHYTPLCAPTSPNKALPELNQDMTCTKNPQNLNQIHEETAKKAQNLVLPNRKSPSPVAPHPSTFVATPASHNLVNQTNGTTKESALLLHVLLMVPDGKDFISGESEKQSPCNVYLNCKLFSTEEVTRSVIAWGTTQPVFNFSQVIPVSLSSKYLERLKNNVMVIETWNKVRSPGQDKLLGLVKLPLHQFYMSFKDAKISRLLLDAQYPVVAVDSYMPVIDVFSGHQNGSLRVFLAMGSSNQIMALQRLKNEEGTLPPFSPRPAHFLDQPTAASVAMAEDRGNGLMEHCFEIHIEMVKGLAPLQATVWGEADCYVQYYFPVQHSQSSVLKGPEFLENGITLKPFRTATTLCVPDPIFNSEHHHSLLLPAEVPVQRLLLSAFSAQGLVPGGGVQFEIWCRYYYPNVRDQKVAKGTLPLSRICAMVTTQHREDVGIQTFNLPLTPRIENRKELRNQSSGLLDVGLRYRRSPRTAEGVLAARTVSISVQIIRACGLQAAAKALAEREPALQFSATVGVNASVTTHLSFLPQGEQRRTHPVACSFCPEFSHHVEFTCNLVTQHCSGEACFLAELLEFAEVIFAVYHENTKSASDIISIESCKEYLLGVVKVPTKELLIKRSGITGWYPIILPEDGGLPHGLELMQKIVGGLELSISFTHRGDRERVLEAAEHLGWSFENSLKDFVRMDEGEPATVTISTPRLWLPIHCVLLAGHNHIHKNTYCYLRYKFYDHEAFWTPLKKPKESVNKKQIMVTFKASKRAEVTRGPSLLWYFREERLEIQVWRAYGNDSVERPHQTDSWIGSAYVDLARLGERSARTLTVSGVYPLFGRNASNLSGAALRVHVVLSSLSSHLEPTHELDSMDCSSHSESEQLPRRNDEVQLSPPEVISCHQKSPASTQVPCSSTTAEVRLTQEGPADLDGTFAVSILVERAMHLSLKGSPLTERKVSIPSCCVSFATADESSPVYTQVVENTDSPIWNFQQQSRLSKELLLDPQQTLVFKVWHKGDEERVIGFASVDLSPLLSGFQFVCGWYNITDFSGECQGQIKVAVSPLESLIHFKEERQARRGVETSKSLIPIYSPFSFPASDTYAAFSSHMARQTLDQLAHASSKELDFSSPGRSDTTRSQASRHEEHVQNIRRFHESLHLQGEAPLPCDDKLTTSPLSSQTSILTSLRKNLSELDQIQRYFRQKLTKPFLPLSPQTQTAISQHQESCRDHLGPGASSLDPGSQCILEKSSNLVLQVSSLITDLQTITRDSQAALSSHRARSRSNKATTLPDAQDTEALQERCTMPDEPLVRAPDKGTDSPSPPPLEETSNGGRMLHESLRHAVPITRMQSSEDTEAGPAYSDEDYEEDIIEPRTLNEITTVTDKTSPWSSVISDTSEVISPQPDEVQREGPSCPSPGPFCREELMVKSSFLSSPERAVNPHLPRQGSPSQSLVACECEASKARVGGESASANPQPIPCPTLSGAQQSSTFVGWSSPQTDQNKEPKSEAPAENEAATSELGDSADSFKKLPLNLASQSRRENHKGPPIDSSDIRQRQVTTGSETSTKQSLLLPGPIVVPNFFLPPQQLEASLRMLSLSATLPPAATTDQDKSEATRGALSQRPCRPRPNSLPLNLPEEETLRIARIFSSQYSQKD

No constants are given. Whether binding was seen depends on the method and setting. Binding seen in cells or lysates may run through a third protein. Some binding calls cover weakened binding; strength is not graded here. Tags and fused reporters may be left off the sequences shown.

The labels stand for the following.
B1: myc-tagged CEP120 (aa 416–894) (domain or fragment, UniProt Q8N960 416-894)
chain: NPKASSSVPASLAQLVTTSNASEVASGQKIAVPATSHHFCFSIDLRSIHALEIGFPINCILRYSYPFFGSAAPIMTNPPVEVRKNMEVFLPQSYCAFDFATMPHQLQDTFLRIPLLVELWHKDKMSKDLLLGIARIQLSNILSSEKTRFLGSNGEQCWRQTYSESVPVIAAQGSNNRIADLSYTVTLEDYGLVKMREIFISDSSQGVSAVQQKPSSLPPAPCPSEIQTEPRETLEYKAALELEMWKEMQEDIFENQLKQKELAHMQALAEEWKKRDRERESLVKKKVAEYTILEGKLQKTLIDLEKREQQLASVESELQREKKELQSERQRNLQELQDSIRRAKEDCIHQVELERLKIKQLEEDKHRLQQQLNDAENKYKILEKEFQQFKDQQNNKPEIRLQSEINLLTLEKVELERKLESATKSKLHYKQQWGRALKELARLKQREQESQMARLKKQQEELEQMRLRYLAAEEKDTVK
B2: myc-tagged CEP120 (aa 416–730) (domain or fragment, UniProt Q8N960 416-730)
chain: NPKASSSVPASLAQLVTTSNASEVASGQKIAVPATSHHFCFSIDLRSIHALEIGFPINCILRYSYPFFGSAAPIMTNPPVEVRKNMEVFLPQSYCAFDFATMPHQLQDTFLRIPLLVELWHKDKMSKDLLLGIARIQLSNILSSEKTRFLGSNGEQCWRQTYSESVPVIAAQGSNNRIADLSYTVTLEDYGLVKMREIFISDSSQGVSAVQQKPSSLPPAPCPSEIQTEPRETLEYKAALELEMWKEMQEDIFENQLKQKELAHMQALAEEWKKRDRERESLVKKKVAEYTILEGKLQKTLIDLEKREQQLASVE
B3: CEP120-myc (aa 416–986) (domain or fragment, UniProt Q8N960 416-986)
chain: NPKASSSVPASLAQLVTTSNASEVASGQKIAVPATSHHFCFSIDLRSIHALEIGFPINCILRYSYPFFGSAAPIMTNPPVEVRKNMEVFLPQSYCAFDFATMPHQLQDTFLRIPLLVELWHKDKMSKDLLLGIARIQLSNILSSEKTRFLGSNGEQCWRQTYSESVPVIAAQGSNNRIADLSYTVTLEDYGLVKMREIFISDSSQGVSAVQQKPSSLPPAPCPSEIQTEPRETLEYKAALELEMWKEMQEDIFENQLKQKELAHMQALAEEWKKRDRERESLVKKKVAEYTILEGKLQKTLIDLEKREQQLASVESELQREKKELQSERQRNLQELQDSIRRAKEDCIHQVELERLKIKQLEEDKHRLQQQLNDAENKYKILEKEFQQFKDQQNNKPEIRLQSEINLLTLEKVELERKLESATKSKLHYKQQWGRALKELARLKQREQESQMARLKKQQEELEQMRLRYLAAEEKDTVKTERQELLDIRNELNRLRQQEQKQYQDSTEIASGKKDGPHGSVLEEGLDDYLTRLIEERDTLMRTGVYNHEDRIISELDRQIREILAKSNASN
B4: CEP120 (aa 1–730), myc-tagged (domain or fragment, UniProt Q8N960 1-730)
chain: MVSKSDQLLIVVSILEGRHFPKRPKHMLVVEAKFDGEQLATDPVDHTDQPEFATELAWEIDRKALHQHRLQRTPIKLQCFALDPVTSAKETIGYIVLDLRTAQETKQAPKWYQLLSNKYTKFKSEIQISIALETDTKPPVDSFKAKGAPPRDGKVPAILAGLDPRDIVAVLNEEGGYHQIGPAEYCTDSFIMSVTIAFATQLEQLIPCTMKLPERQPEFFFYYSLLGNDVTNEPFNDLINPNFEPERASVRIRSSVEILRVYLALQSKLQIHLCCGDQSLGSTEIPLTGLLKKGSTEINQHPVTVEGAFTLDPPNRAKQKLAPIPVELAPTVGVSVALQREGIDSQSLIELKTQNEHEPEHSKKKVLTPIKEKTLTGPKSPTVSPVPSHNQSPPTKDDATESEVESLQYDKDTKPNPKASSSVPASLAQLVTTSNASEVASGQKIAVPATSHHFCFSIDLRSIHALEIGFPINCILRYSYPFFGSAAPIMTNPPVEVRKNMEVFLPQSYCAFDFATMPHQLQDTFLRIPLLVELWHKDKMSKDLLLGIARIQLSNILSSEKTRFLGSNGEQCWRQTYSESVPVIAAQGSNNRIADLSYTVTLEDYGLVKMREIFISDSSQGVSAVQQKPSSLPPAPCPSEIQTEPRETLEYKAALELEMWKEMQEDIFENQLKQKELAHMQALAEEWKKRDRERESLVKKKVAEYTILEGKLQKTLIDLEKREQQLASVE
B5: CEP120-myc (aa 1–894) (domain or fragment, UniProt Q8N960 1-894)
chain: MVSKSDQLLIVVSILEGRHFPKRPKHMLVVEAKFDGEQLATDPVDHTDQPEFATELAWEIDRKALHQHRLQRTPIKLQCFALDPVTSAKETIGYIVLDLRTAQETKQAPKWYQLLSNKYTKFKSEIQISIALETDTKPPVDSFKAKGAPPRDGKVPAILAGLDPRDIVAVLNEEGGYHQIGPAEYCTDSFIMSVTIAFATQLEQLIPCTMKLPERQPEFFFYYSLLGNDVTNEPFNDLINPNFEPERASVRIRSSVEILRVYLALQSKLQIHLCCGDQSLGSTEIPLTGLLKKGSTEINQHPVTVEGAFTLDPPNRAKQKLAPIPVELAPTVGVSVALQREGIDSQSLIELKTQNEHEPEHSKKKVLTPIKEKTLTGPKSPTVSPVPSHNQSPPTKDDATESEVESLQYDKDTKPNPKASSSVPASLAQLVTTSNASEVASGQKIAVPATSHHFCFSIDLRSIHALEIGFPINCILRYSYPFFGSAAPIMTNPPVEVRKNMEVFLPQSYCAFDFATMPHQLQDTFLRIPLLVELWHKDKMSKDLLLGIARIQLSNILSSEKTRFLGSNGEQCWRQTYSESVPVIAAQGSNNRIADLSYTVTLEDYGLVKMREIFISDSSQGVSAVQQKPSSLPPAPCPSEIQTEPRETLEYKAALELEMWKEMQEDIFENQLKQKELAHMQALAEEWKKRDRERESLVKKKVAEYTILEGKLQKTLIDLEKREQQLASVESELQREKKELQSERQRNLQELQDSIRRAKEDCIHQVELERLKIKQLEEDKHRLQQQLNDAENKYKILEKEFQQFKDQQNNKPEIRLQSEINLLTLEKVELERKLESATKSKLHYKQQWGRALKELARLKQREQESQMARLKKQQEELEQMRLRYLAAEEKDTVK
B6: CEP120-myc I975S mutant (protein, UniProt Q8N960 1-986)
chain: MVSKSDQLLIVVSILEGRHFPKRPKHMLVVEAKFDGEQLATDPVDHTDQPEFATELAWEIDRKALHQHRLQRTPIKLQCFALDPVTSAKETIGYIVLDLRTAQETKQAPKWYQLLSNKYTKFKSEIQISIALETDTKPPVDSFKAKGAPPRDGKVPAILAGLDPRDIVAVLNEEGGYHQIGPAEYCTDSFIMSVTIAFATQLEQLIPCTMKLPERQPEFFFYYSLLGNDVTNEPFNDLINPNFEPERASVRIRSSVEILRVYLALQSKLQIHLCCGDQSLGSTEIPLTGLLKKGSTEINQHPVTVEGAFTLDPPNRAKQKLAPIPVELAPTVGVSVALQREGIDSQSLIELKTQNEHEPEHSKKKVLTPIKEKTLTGPKSPTVSPVPSHNQSPPTKDDATESEVESLQYDKDTKPNPKASSSVPASLAQLVTTSNASEVASGQKIAVPATSHHFCFSIDLRSIHALEIGFPINCILRYSYPFFGSAAPIMTNPPVEVRKNMEVFLPQSYCAFDFATMPHQLQDTFLRIPLLVELWHKDKMSKDLLLGIARIQLSNILSSEKTRFLGSNGEQCWRQTYSESVPVIAAQGSNNRIADLSYTVTLEDYGLVKMREIFISDSSQGVSAVQQKPSSLPPAPCPSEIQTEPRETLEYKAALELEMWKEMQEDIFENQLKQKELAHMQALAEEWKKRDRERESLVKKKVAEYTILEGKLQKTLIDLEKREQQLASVESELQREKKELQSERQRNLQELQDSIRRAKEDCIHQVELERLKIKQLEEDKHRLQQQLNDAENKYKILEKEFQQFKDQQNNKPEIRLQSEINLLTLEKVELERKLESATKSKLHYKQQWGRALKELARLKQREQESQMARLKKQQEELEQMRLRYLAAEEKDTVKTERQELLDIRNELNRLRQQEQKQYQDSTEIASGKKDGPHGSVLEEGLDDYLTRLIEERDTLMRTGVYNHEDRIISELDRQSREILAKSNASN
B7: CEP120-myc L726P mutant (protein, UniProt Q8N960 1-986)
chain: MVSKSDQLLIVVSILEGRHFPKRPKHMLVVEAKFDGEQLATDPVDHTDQPEFATELAWEIDRKALHQHRLQRTPIKLQCFALDPVTSAKETIGYIVLDLRTAQETKQAPKWYQLLSNKYTKFKSEIQISIALETDTKPPVDSFKAKGAPPRDGKVPAILAGLDPRDIVAVLNEEGGYHQIGPAEYCTDSFIMSVTIAFATQLEQLIPCTMKLPERQPEFFFYYSLLGNDVTNEPFNDLINPNFEPERASVRIRSSVEILRVYLALQSKLQIHLCCGDQSLGSTEIPLTGLLKKGSTEINQHPVTVEGAFTLDPPNRAKQKLAPIPVELAPTVGVSVALQREGIDSQSLIELKTQNEHEPEHSKKKVLTPIKEKTLTGPKSPTVSPVPSHNQSPPTKDDATESEVESLQYDKDTKPNPKASSSVPASLAQLVTTSNASEVASGQKIAVPATSHHFCFSIDLRSIHALEIGFPINCILRYSYPFFGSAAPIMTNPPVEVRKNMEVFLPQSYCAFDFATMPHQLQDTFLRIPLLVELWHKDKMSKDLLLGIARIQLSNILSSEKTRFLGSNGEQCWRQTYSESVPVIAAQGSNNRIADLSYTVTLEDYGLVKMREIFISDSSQGVSAVQQKPSSLPPAPCPSEIQTEPRETLEYKAALELEMWKEMQEDIFENQLKQKELAHMQALAEEWKKRDRERESLVKKKVAEYTILEGKLQKTLIDLEKREQQPASVESELQREKKELQSERQRNLQELQDSIRRAKEDCIHQVELERLKIKQLEEDKHRLQQQLNDAENKYKILEKEFQQFKDQQNNKPEIRLQSEINLLTLEKVELERKLESATKSKLHYKQQWGRALKELARLKQREQESQMARLKKQQEELEQMRLRYLAAEEKDTVKTERQELLDIRNELNRLRQQEQKQYQDSTEIASGKKDGPHGSVLEEGLDDYLTRLIEERDTLMRTGVYNHEDRIISELDRQIREILAKSNASN
B8: CEP120-myc L712F mutant (protein, UniProt Q8N960 1-986)
chain: MVSKSDQLLIVVSILEGRHFPKRPKHMLVVEAKFDGEQLATDPVDHTDQPEFATELAWEIDRKALHQHRLQRTPIKLQCFALDPVTSAKETIGYIVLDLRTAQETKQAPKWYQLLSNKYTKFKSEIQISIALETDTKPPVDSFKAKGAPPRDGKVPAILAGLDPRDIVAVLNEEGGYHQIGPAEYCTDSFIMSVTIAFATQLEQLIPCTMKLPERQPEFFFYYSLLGNDVTNEPFNDLINPNFEPERASVRIRSSVEILRVYLALQSKLQIHLCCGDQSLGSTEIPLTGLLKKGSTEINQHPVTVEGAFTLDPPNRAKQKLAPIPVELAPTVGVSVALQREGIDSQSLIELKTQNEHEPEHSKKKVLTPIKEKTLTGPKSPTVSPVPSHNQSPPTKDDATESEVESLQYDKDTKPNPKASSSVPASLAQLVTTSNASEVASGQKIAVPATSHHFCFSIDLRSIHALEIGFPINCILRYSYPFFGSAAPIMTNPPVEVRKNMEVFLPQSYCAFDFATMPHQLQDTFLRIPLLVELWHKDKMSKDLLLGIARIQLSNILSSEKTRFLGSNGEQCWRQTYSESVPVIAAQGSNNRIADLSYTVTLEDYGLVKMREIFISDSSQGVSAVQQKPSSLPPAPCPSEIQTEPRETLEYKAALELEMWKEMQEDIFENQLKQKELAHMQALAEEWKKRDRERESLVKKKVAEYTILEGKFQKTLIDLEKREQQLASVESELQREKKELQSERQRNLQELQDSIRRAKEDCIHQVELERLKIKQLEEDKHRLQQQLNDAENKYKILEKEFQQFKDQQNNKPEIRLQSEINLLTLEKVELERKLESATKSKLHYKQQWGRALKELARLKQREQESQMARLKKQQEELEQMRLRYLAAEEKDTVKTERQELLDIRNELNRLRQQEQKQYQDSTEIASGKKDGPHGSVLEEGLDDYLTRLIEERDTLMRTGVYNHEDRIISELDRQIREILAKSNASN

In the first assay the target is GFP-Talpid3 (human) (UniProt Q9BVV6). Nature of the assay: co-IP; HEK293T cells co-transfected with the GFP- and myc-tagged constructs; lysates 24 h after transfection immunoprecipitated (anti-GFP antibody in the mapping) and immunoblotted. (In general: Immunoblotting shows a protein as a band on a membrane.)
As for B1, the binding entry was “binds”.
For B2, the binding entry is “binds”.

The target of another assay is full-length GFP-C2CD3 (human) (UniProt Q4AC94). The description is as above.
In the case of B3, the binding entry is “binds”.
The same measure, in the same setting: as for B4, the entry is “no binding”; as for B5, “no binding”.
For the molecule B6, the binding entry is on record as “binds weakly”.
On to B7, for which the binding entry is reported as “binds”.
Consider B8, for which the binding result is listed as “binds”.
